Test results: PubChem BioAssay AID2100 (National Center for Advancing Translational Sciences (NCATS), 2009)
The campaign covered roughly 300,000 compounds. About 1,200 (0.4%) were called active. The inconclusive results got no clear call from the source; some entries with a clear call stand among them for comparison. Calls come from the whole dose curve; as a rule, active = well fitted inhibition curve with a large enough effect; inconclusive = small, poorly fitted or top-dose-only effect, or another doubt; inactive = no such curve, though single readings can be large or run the other way. Where the call is inconclusive, the potency comes from a doubtful curve fit.

target: Lysosomal alpha-glucosidase (Homo sapiens) (UniProt P10253); assay: qHTS Assay for Inhibitors and Activators of Human alpha-Glucosidase Cleavage of Glycogen; details: recombinant GAA, glycogen substrate, Amplex Red glucose oxidase fluorescence; activity change, negative = inhibition: at 76.4 µM (top of the series) unless noted;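 for activity change, negative = inhibition: 0% = full enzyme reaction and -100% = no-enzyme basal signal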
Procedure, shortened: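 Natural-substrate format: glycogen cleavage by 4 nM human enzyme, glucose read by Amplex Red coupling (Ex 573, Em 610 nm). Normalized to enzyme and no-enzyme controls.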
Potency is the fitted concentration of half-maximal effect.

| SMILES | activity change, negative = inhibition | Potency |
| --- | --- | --- |
| O=C(Nc1ccccn1)c1ccc2c(c1)OCO2 | inactive: -7.88% | – |
| CCOC(=O)c1c(CN2CCOCC2)n(C)c2cc(Br)c(O)c(CN(C)C)c12 | – | inconclusive: 17.8 µM [inhibitor, partial curve] |
| Cc1ccccc1Nc1c(-c2cccnc2)nc2ccc(Cl)cn12 | – | inconclusive: 7.94 µM [inhibitor, full curve] |
| CCOC(=O)C1=C(CS(=O)(=O)c2ccccc2)NC(=O)NC1c1cc(OC)c(O)c(OC)c1 (stereo not drawn) | – | inconclusive: 39.8 µM [inhibitor, single point] |
| CCOC(=O)c1cnc2c(C)c(Cl)ccc2c1Nc1ccc(N2CCOCC2)cc1 | – | inconclusive: 6.31 µM [inhibitor, full curve, poor fit] |
| Cc1ccc(-c2cn3c(n2)sc2cc(C(=O)NCCCc4ccccc4)ccc23)c(C)c1 | inactive: 14.1% [at 76.3 µM] | – |
| Cc1ccc(Nc2c(-c3ccccn3)nc3cc(C)ccn23)cc1 | – | inconclusive: 4.47 µM [inhibitor, full curve] |
| CN1CN(C)c2ccc([N+](=O)[O-])c3cccc1c23 | – | inconclusive: 39.8 µM [inhibitor, single point] |
| COc1ccccc1CNc1ccc(N2CCOCC2)c(C(=O)O)c1 | – | inconclusive: 6.26 µM [inhibitor, partial curve] |
| NC(=S)Nc1cccc2cc3ccccc3cc12 | – | inconclusive: 17.6 µM [inhibitor, partial curve] |
| CCc1cc2c(cc3c(=O)n(CCCC(=O)NCc4cccc(Cl)c4)ncn32)s1 | inactive: 1.61% [at 76.3 µM] | – |
| Cc1nc(C/C(=N\Nc2ccccc2)c2ccc(O)cc2O)cs1 | – | inconclusive: 9.92 µM [inhibitor, partial curve] |
| OCC1(Cc2ccccc2)CCN(Cc2ccccn2)CC1 | – | inconclusive: 25.1 µM [inhibitor, partial curve] |
| CCNC(=S)Nc1cc(OCC)c(N2CCOCC2)cc1OCC | inactive: -1.16% | – |
| COc1cc(/C=C/C(=O)OCC(=O)N2CCN(C(=O)c3ccco3)CC2)ccc1O | – | inconclusive: 31.6 µM [inhibitor, single point] |
| CCOC(=O)c1[nH]c2ccc(OC)cc2c1NC(=O)N1CCOCC1 | – | inconclusive: 22.2 µM [inhibitor, partial curve] |
| O=C(CN1CCN(c2ccccc2O)CC1)Nc1cccnc1Cl | – | inconclusive: 2.8 µM [inhibitor, full curve] |
| N#Cc1cc(Cl)c(N2CCOCC2)cc1C#N | inactive: -15.3% | – |
| N#C/C(=N\Nc1ccc(S(=O)(=O)N2CCOCC2)cc1)C(N)=S | – | inconclusive: 39.8 µM [inhibitor, partial curve] |
| NNC(=O)c1nc(-c2cccc(-n3cccc3)c2)no1 | – | inconclusive: 35.5 µM [inhibitor, single point] |
| COc1ccc(Nc2c(-c3cccc(O)c3)nc3cnccn23)cc1 | – | inconclusive: 10 µM [inhibitor, full curve] |
| Cc1nc(NC(=O)c2ccccc2)sc1-c1csc(Nc2ccc(F)cc2)n1 | – | inconclusive: 15.7 µM [inhibitor, partial curve] |

| SMILES | activity change, negative = inhibition | Potency |
| --- | --- | --- |
| O=C(N/N=C/c1sc2ccccc2c1O)c1ccccc1 | – | inconclusive: 39.8 µM [inhibitor, single point] |
| c1ccc(N/N=C(\Cc2ncc[nH]2)c2ccccc2)cc1 | – | inconclusive: 8.84 µM [inhibitor, partial curve] |
| CCOC(=O)C(NC(=O)c1ccccc1Cl)(Nc1sc2c(c1C(N)=O)CCC2)C(F)(F)F (stereo not drawn) | – | inconclusive: 35.5 µM [inhibitor, partial curve] |
| COc1cc(/C=N\NC(=O)c2c(C)nc3cc(C)ccn23)ccc1O | – | active: 11.1 µM |
| CCOc1ccc(-n2c(O)c(/C=N/Nc3nc(C)cc(C)n3)c3ccccc3c2=O)cc1 | inactive: 6.76% | – |
| Cc1ccc(C2CC(c3cccs3)=NN2C(=O)c2ccc(Br)o2)cc1 (stereo not drawn) | – | inconclusive: 49.7 µM [inhibitor, partial curve] |
| CC(Oc1ccc(Cl)cc1Cl)C(=O)Nc1ccc(O)cc1 (stereo not drawn) | – | inconclusive: 39.8 µM [inhibitor, partial curve] |
| O=C(NNS(=O)(=O)c1ccccc1)c1ccc(S(=O)(=O)N2CCCCC2)cc1 | – | inconclusive: 28 µM [inhibitor, partial curve] |
| COc1cc(/C=C/CN2CCN(Cc3ccc(C)o3)C(CCO)C2)ccc1O (stereo not drawn) | – | inconclusive: 17.8 µM [inhibitor, partial curve] |
| CCCn1cnc2cc(NCc3cccc(OC)c3O)ccc21 | – | active: 17.6 µM |
| CCOC(=O)N1CCC(N2CCN(c3cc(C)ccc3C)CC2)CC1 | – | inconclusive: 9.92 µM [activator, partial curve, poor fit] |
| NNC(=O)c1sc2cc(C(F)(F)F)cnc2c1-c1ccccn1 | – | inconclusive: 2.82 µM [inhibitor, full curve] |
| CCOC(=O)c1ccc(NS(=O)(=O)c2cc3c(cc2C)n(C)c(=O)c(=O)n3C)cc1 | inactive: 13.4% [at 76.3 µM] | – |
| COc1cc2c(ccc3cc(OC)c(OC)c(O)c32)cc1O | – | inconclusive: 39.8 µM [inhibitor, partial curve] |
| COc1cc(OC)cc(C(=O)NCc2ccc3c(c2)cc(C)n3C)c1 | – | inconclusive: 28 µM [activator, single point] |
| COc1ccccc1Nc1nc(-c2sc(NC(=O)CC(C)C)nc2C)cs1 | – | inconclusive: 3.95 µM [inhibitor, full curve] |
| COC(=O)c1ccc(NC(=S)NNC(=O)c2ccccc2)cc1 | – | inconclusive: 39.8 µM [inhibitor, partial curve] |
| CN1CC=C2C(C#N)=C(N)C(C#N)(C#N)C(Cc3ccccc3)C2C1 (stereo not drawn) | – | inconclusive: 19.8 µM [activator, single point] |
| Cc1ccccc1-c1ccc(C=Nc2c(C)n(C)n(-c3ccccc3)c2=O)o1 | – | active: 15.8 µM |
| COc1cc(/C=N/N2CCN(C3c4ccccc4-c4ccccc43)CC2)ccc1O | – | inconclusive: 15.7 µM [inhibitor, partial curve] |
| COc1cc(C2Oc3cc(C4Oc5cc(O)cc(O)c5C(=O)C4O)ccc3OC2CO)ccc1O (stereo not drawn) | – | inconclusive: 35.5 µM [inhibitor, single point] |
